Out of some 310,000 compounds screened, about 2,200 (0.71%) showed an effect of 50% or more. The effect is printed as a negative number. The list shows a part of the results.
biological target: human ether-à-go-go-related gene (hERG) potassium channel (human, UniProt Q12809); experiment: primary screen, population patch clamp on CHO cells stably expressing hERG
Sequence (Q12809 whole entry, looked up): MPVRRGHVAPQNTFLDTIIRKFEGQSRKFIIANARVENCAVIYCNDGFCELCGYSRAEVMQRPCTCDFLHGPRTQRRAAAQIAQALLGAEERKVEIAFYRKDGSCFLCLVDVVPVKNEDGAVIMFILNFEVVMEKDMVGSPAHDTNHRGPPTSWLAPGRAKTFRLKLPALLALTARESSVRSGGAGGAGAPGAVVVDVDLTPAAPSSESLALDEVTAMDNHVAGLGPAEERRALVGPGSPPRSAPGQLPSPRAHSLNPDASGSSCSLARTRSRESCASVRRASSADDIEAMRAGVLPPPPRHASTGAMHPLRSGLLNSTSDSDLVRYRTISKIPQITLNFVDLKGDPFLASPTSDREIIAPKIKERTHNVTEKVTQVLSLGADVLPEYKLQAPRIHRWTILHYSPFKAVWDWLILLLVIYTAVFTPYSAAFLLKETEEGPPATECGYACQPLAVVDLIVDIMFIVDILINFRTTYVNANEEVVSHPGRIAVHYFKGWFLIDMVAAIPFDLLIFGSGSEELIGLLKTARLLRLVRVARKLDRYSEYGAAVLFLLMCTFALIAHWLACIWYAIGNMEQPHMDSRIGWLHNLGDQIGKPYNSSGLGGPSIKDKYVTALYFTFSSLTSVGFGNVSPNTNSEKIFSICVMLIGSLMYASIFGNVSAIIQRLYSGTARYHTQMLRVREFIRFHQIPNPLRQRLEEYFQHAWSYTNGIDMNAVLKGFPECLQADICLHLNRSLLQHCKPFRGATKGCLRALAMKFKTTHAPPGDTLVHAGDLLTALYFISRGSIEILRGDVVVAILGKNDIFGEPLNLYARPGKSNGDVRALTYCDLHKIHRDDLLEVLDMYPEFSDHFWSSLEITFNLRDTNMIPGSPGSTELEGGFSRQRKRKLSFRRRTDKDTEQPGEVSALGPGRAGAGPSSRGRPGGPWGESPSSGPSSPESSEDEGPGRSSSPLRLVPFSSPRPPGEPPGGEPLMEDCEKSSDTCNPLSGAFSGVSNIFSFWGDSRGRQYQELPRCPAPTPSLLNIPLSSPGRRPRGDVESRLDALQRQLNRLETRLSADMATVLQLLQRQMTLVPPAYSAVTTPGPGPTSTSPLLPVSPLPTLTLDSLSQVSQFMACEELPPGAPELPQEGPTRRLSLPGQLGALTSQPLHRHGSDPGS

| Structure (SMILES) | hERG current change (%, negative = inhibition) at 1uM |
| --- | --- |
| CC1c2nc3ccccc3n2C(CC(=O)NCCCN2CCOCC2)C(=O)N1Cc1ccccc1 (centres unmarked) | 2.29% |
| COc1cc(CNc2ccc(N3CCOCC3)cc2)ccc1OCC(=O)NC(C)(C)C | 14.9% |
| COC(=O)C(C(=O)OC)=C(/C=C/C=C/N(C)C)N(C)C | 5.52% |
| COC(=O)COc1ccc(S(=O)(=O)Nc2ccc3c(c2)OCO3)cc1Cl | 8.17% |
| COc1ccccc1C(=O)NNC(=O)c1sccc1-n1cccc1 | 14.5% |
| CCn1c(CSc2nc(C)cc(C)n2)nnc1SCC(=O)Nc1cccc2ccccc12 | 7.19% |
| CCCS(=O)(=O)c1nc(S(=O)(=O)c2ccc(C)cc2)c(N2CCC(O)CC2)s1 | 17% |
| COC(=O)C1=C(C)N(CCCC(=O)O)C(=O)NC1c1cccc(Cl)c1Cl (centres unmarked) | 5.52% |
| CC(=O)NC1(C(F)(F)F)NC(=O)N(CCc2ccccc2)C1=O (centres unmarked) | 20.5% |
| O=c1cc(CN2CCN(Cc3ccccc3)CC2)c2cc(O)ccc2o1 | -39.4% |
| CC(C)Oc1ccc(S(=O)(=O)N2CCOCC2)cc1NC(=O)c1ccc(N2CCCC2=O)cc1 | 7.24% |
| CCOC(=O)C1CCN(c2cc(C)nc3ccc(OC)cc23)CC1 | -56.1% |
| O=[N+]([O-])c1ccc(S(=O)(=O)NCCS(=O)(=O)N2CCN(c3ccccc3)CC2)cc1 | 13.9% |
| Cc1cc(C)n(CC(=O)NC2C(=O)N3C(C(=O)O)=C(CSc4nnc(C)s4)CSC23)n1 (centres unmarked) | 10.9% |
| COc1ccc(-n2c(SCC(=O)Nc3nccs3)nnc2-c2ccoc2C)cc1 | -79.4% |
| COCCOC(=O)C1=C(C)NC2=C(C(=O)CC(c3cccs3)C2)C1c1ccsc1 (centres unmarked) | 7.93% |
| COCC(=O)N(C)CC1CCCN(CCc2ccccc2OC)C1 (centres unmarked) | 13% |
| Nc1sc(-c2ccccc2)n[n+]1Cc1cccc2cccnc12.[Br-] | -19.8% |
| O=C(Nc1ccc(Cl)c(C(F)(F)F)c1)[C@@H]1CC=C[C@@H]2CCN(Cc3ccccc3)C(=O)[C@@H]21 | -3.52% |
| Nn1c(SCC(=O)Nc2c(Cl)cccc2Cl)nncc1=O | 6.57% |
| COc1ccc(C)cc1NC(=O)CC(O)(C(F)(F)F)C(F)(F)F | 9.6% |
| O=C1CC(N2CCN(c3ccccn3)CC2)C(=O)N1CC(c1ccccc1)c1ccccc1 (centres unmarked) | -9.72% |

| Structure (SMILES) | hERG current change (%, negative = inhibition) at 1uM |
| --- | --- |
| N#CC1=C(N)C2=CCCC[C@H]2[C@H](c2ccc(Br)cc2)C1(C#N)C#N | 1.85% |
| Oc1nc(Nc2ccc(Cl)cc2Cl)sc1/C=C1\C=Nc2ccccc21 | 6.56% |
| CCOc1ccccc1C(=O)N(C)Cc1cc2cc(OC)ccc2[nH]c1=O | -3.03% |
| CCCOc1ccc(-c2c(C(=O)N/N=C/c3cccs3)nnn2-c2nonc2N)cc1 | 18.2% |
| Cc1cc(C)n2nc(SCC(=O)Nc3c(C)n(C)n(-c4ccccc4)c3=O)nc2n1 | -0.183% |
| O=C(COc1ccc2c(c1)oc(=O)c1ccccc12)NCCN1CCOCC1 | -1.07% |
| COC(=O)C1=NNC2C(=O)N(C3CCCCC3)C(=O)C12 (centres unmarked) | 1.34% |
| COc1ccc(OCc2cc(C(=O)N3CCSCC3)no2)c(Cl)c1 | 17.4% |
| COc1ccc2c(=O)c(C(=O)O)c(-c3ccc4c(c3)OCO4)n(C)c2c1 | 12.9% |
| CC1(C)C=C(c2ccc(C(=O)O)s2)CC(C)(C)N1.Cl | 8.74% |
| Cc1cccc(NC(=O)C2(c3ccccc3)CCOCC2)c1 | 5.14% |
| CCNS(=O)(=O)c1ccc(Br)c(C(=O)OC(C)C(=O)NCC2CCCCC2)c1 (centres unmarked) | -16.8% |
| COc1ccccc1NC(=O)CSc1nc(N)cc(N)n1 | 4.44% |
| Cc1ccc(C)c(NC(=O)c2ccccn2)c1 | -2.93% |
| CN(CCc1cn[nH]c1)Cc1nc(Cc2ccccc2)no1 | 15.6% |
| CCOC(=O)c1c(C)oc2c1c1c(c3ccccc32)OCN(CCCC(=O)O)C1 | 4.61% |
| Cc1ccc(S(=O)(=O)c2c(O)c3ccc(C(=O)O)cc3[nH]c2=O)cc1 | 12.3% |
| COc1ccc(NC(=O)c2ccc3ccccc3c2OC)cc1 | 9.51% |
| Cc1ccc(-c2ncccc2OC(=O)C23CC4CC(CC(C4)C2)C3)cc1.Cl | 15.9% |
| CCn1cc(C(=O)NCc2ccc3c(c2)OCO3)c(=O)c2cc(F)c(N3CCN(C)CC3)cc21 | -12.9% |
| Cc1noc(NS(=O)(=O)c2ccc(NC(=O)C34CC5CC(C3)CC(n3cnc(Cl)n3)(C5)C4)cc2)c1C | 7.74% |
| O=C(Nc1cccc(F)c1)N1CCN(C(=O)c2ccco2)CC1 | 4.87% |

| Structure (SMILES) | hERG current change (%, negative = inhibition) at 1uM |
| --- | --- |
| CC1(C)C2CC=C(CN3CCC(O)CC3)C1C2 (centres unmarked) | 0.781% |
| COc1ccc(C(=O)Nc2ccc(-n3nncc3C(C)(C)C)cc2)cc1 | -1.01% |
| COc1cccc(NC(=O)CN(C)C(=O)c2ccc(NC3CC3)c([N+](=O)[O-])c2)c1 | -40.8% |
| O=C(NCC(=O)N1CCCC(C(F)(F)F)C1)c1ccccc1F (centres unmarked) | 16.4% |
| O=c1[nH]c2cccnc2n1-c1cccc([N+](=O)[O-])c1 | 9.56% |
| CN(CCOc1ccccc1)C(=O)CNC(=O)c1ccc(C(C)(C)C)cc1 | -0.513% |
| CCC(OC(=O)c1nsc(Cl)c1Cl)C(=O)NC(C)(C)C (centres unmarked) | 11.1% |
| O=C(CN1CCN(S(=O)(=O)/C=C/c2ccccc2)CC1)Nc1ccccc1N1CCOCC1 | -6.17% |
| CS(=O)(=O)N1CCCC(C(=O)NCc2ccccn2)C1 (centres unmarked) | 6.34% |
| Cc1cc(-c2ccccc2)n2nc(N)nc2n1 | 5.68% |
| CCOC(=O)C1=NN(c2ccc(Cl)cc2)C(=O)C1 | 13.6% |
| O=S(=O)(c1ccc(F)c(F)c1F)N1CCN(C(=S)Nc2ccccc2)CC1 | 4.27% |
| CCOC(=O)c1cccc(NC(=O)CSc2nnnn2C)c1 | 6.91% |
| Cc1sc(N2C(=O)C3C(C2=O)[C@H]2C=C[C@@H]3C2)c(C#N)c1C (some centres unmarked) | 6.54% |
| Cc1cccc(N2C(=O)c3cccc4c(N)ccc(c34)C2=O)c1 | 9.62% |
| CCn1c(-c2ccc(C(C)(C)C)cc2)n[nH]c1=S | 16% |
| Cc1cccc(-c2cnn(-c3ccccc3)c2N)c1 | 14.4% |
| O=C1[C@@H]2C(c3ccc(F)cc3)=NO[C@@H]2C(=O)N1Cc1ccccc1 | 12.9% |
| O=c1[nH]c(=O)n(-c2ccc(Br)cc2)c(O)c1C=NC(CO)(CO)CO | 8.94% |
| COc1ccc(NC(=O)COc2ccc(/C=C/c3cccc[n+]3C)cc2OC)cc1.[I-] | 8.91% |
| COc1ccccc1CC(=O)N(Cc1ccccc1)c1cccc(C)c1 | 8.75% |
| Cc1nc2cc(C(=O)OCC(=O)NC(C)C(C)C)ccc2n1-c1ccccc1 (centres unmarked) | 8.33% |

| Structure (SMILES) | hERG current change (%, negative = inhibition) at 1uM |
| --- | --- |
| COc1ccc(C(=O)NCC(=O)OCC(=O)c2ccc3c(c2)NC(=O)CO3)cc1 | -14.3% |
| O=C(CSc1nnc(CNC(=O)c2ccco2)o1)Nc1cccc(C(F)(F)F)c1 | -7.49% |
| CC(=O)N1CCCc2cc(S(=O)(=O)Nc3cccc(C)c3C)ccc21 | 15.5% |
| O=C(NCc1ccccc1)c1onc(CSc2ccccc2)c1C(=O)NCc1ccccc1 | 16.8% |
| CC(=O)N1CC(C)Oc2ccc(S(=O)(=O)NC(CC(=O)O)c3ccccc3C)cc21 (centres unmarked) | 21.4% |
| COc1cc(S(=O)(=O)NC2CCCCC2C)ccc1F (centres unmarked) | -14.1% |
| CC(C)Oc1ccccc1C1CC(=O)Nc2c1c(=O)n(C)c(=O)n2C (centres unmarked) | 13.4% |
| Nc1nc(SCc2ccc(Br)cc2)n[nH]1 | 10.7% |
| Cc1ccccc1NC(=O)Cn1c(=O)n(-c2ccc(CC(=O)NCC3CCCO3)cc2)c(=O)c2ccccc21 (centres unmarked) | 7.39% |
| Cc1ccc(-c2nn(-c3ccccc3)cc2C2CC(c3ccccc3)=NN2C(=O)CCC(=O)O)cc1 (centres unmarked) | 10% |
| O=C(CC1NCCNC1=O)OCCCc1ccccc1 (centres unmarked) | 6.66% |
| Cc1ccc(S(=O)(=O)N(C)CC(=O)N/N=C/c2ccc(C)o2)cc1 | -4.09% |
| COc1ccc(C(=O)C2CCCN(C(=O)Cc3c(C)noc3C)C2)cc1OC (centres unmarked) | 11.3% |
| COc1ccc(Cn2c(-c3ccco3)nc3c(c(=O)c4ccccc4n3C)c2=O)cc1 | 7.34% |
| CC1(c2ccccc2)CC(c2ccccc2)=Nc2ccccc2N1 (centres unmarked) | 9.5% |
| CN(C)CCCNS(=O)(=O)c1cc(Cl)c(Cl)cc1Cl | 7.89% |
| CCC(C)NS(=O)(=O)c1ccc(NC(=O)c2cccs2)cc1 (centres unmarked) | 15.3% |
| Cc1ccccc1/C=C/C(=O)c1ccc([N+](=O)[O-])o1 | 4.46% |
| COC(=O)CSc1nnc(-c2ccccc2O)n1-c1ccc(C)cc1 | 4.16% |
| Cn1c(=O)c2c(SCC(=O)N3CCN(c4ccccc4)CC3)nc(C3CC3)nc2n(C)c1=O | -14.2% |
